The supplement of paper PMC4967469
The IC50 comes from the fitted curve, where viability falls to half of the control; a fit beyond the top or the lowest dose is shown as a bound at that dose. For AUC the same curve is integrated over the 256-fold range of doses and scaled to a fraction; the more sensitive the line, the further below 1. For part of these data: The top dose, if marked as inferred, comes from the curve model; the source does not state it.

Legend:
Experiment in all cases: Viability of human cancer cell lines after 72 h of drug (GDSC screen)
[1] = compound: COC1=CC(c2cc3ccccc3[nH]2)=N/C1=C\c1[nH]c(C)cc1C [Obatoclax mesylate]; details: top dose 16 µM
Experimental: (§1)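 Human cancer cell lines in 384-well plates, medium with 10% serum, drug for 72 h over a 256-fold dose range (nine 2-fold or five 4-fold steps up to the top dose). Adherent lines were fixed and stained with the nucleic acid dye Syto60, suspension lines read with resazurin; signal relative to control wells, capped at 0 and 100%. One two-parameter sigmoid per drug and line, fitted in a mixed model over all curves with the slope shared within a line.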

[2] = compound: COCC(=O)NC/C=C/c1ccc2ncnc(Nc3ccc(Oc4ccc(C)nc4)c(C)c3)c2c1 [CP724714]; details: top dose 10.24 µM; top dose inferred
Experimental: as §1

[3] = compound: Cc1cccc(Nc2nc(-c3ccncc3)cs2)c1 [STF-62247]; details: top dose 10.24 µM; top dose inferred
Experimental: as §1

[4] = compound: Cc1cnc(CNC(=O)c2c(=O)c3ccc(N4CCCN(C)CC4)nc3n3c2sc2ccccc23)cn1 [CX-5461]; details: top dose 10.24 µM; top dose inferred
Experimental: as §1

Cell Line | AUC [1] | IC50 [1] | AUC [2] | IC50 [2] | AUC [3] | IC50 [3] | AUC [4] | IC50 [4]
PA-TU-8988T (pancreas, adherent) | 0.292 | 259 nM | 0.973 | > 10.2 µM | 0.984 | > 10.2 µM | 0.868 | 9.41 µM
PANC-02-03 (pancreas, adherent) | 0.575 | 1670 nM | 0.977 | > 10.2 µM | 0.966 | > 10.2 µM | 0.966 | > 10.2 µM
PANC-03-27 (pancreas, adherent) | 0.173 | 112 nM | 0.971 | > 10.2 µM | 0.988 | > 10.2 µM | 0.891 | > 10.2 µM
PANC-04-03 (pancreas, adherent) | 0.593 | 2100 nM | 0.977 | > 10.2 µM | 0.973 | > 10.2 µM | 0.978 | > 10.2 µM
PANC-08-13 (pancreas, adherent) | 0.506 | 1040 nM | 0.981 | > 10.2 µM | 0.982 | > 10.2 µM | 0.949 | > 10.2 µM
PANC-10-05 (pancreas, adherent) | 0.23 | 128 nM | 0.974 | > 10.2 µM | 0.965 | > 10.2 µM | 0.778 | 5.4 µM
PC-3 (prostate, adherent) | 0.588 | 1840 nM | 0.968 | > 10.2 µM | 0.962 | > 10.2 µM | 0.925 | > 10.2 µM
PC-3 [JPC-3] (lung adenocarcinoma, adherent) | 0.443 | 664 nM | 0.911 | > 10.2 µM | 0.979 | > 10.2 µM | 0.918 | > 10.2 µM
PC-14 (lung adenocarcinoma, adherent) | 0.19 | 137 nM | 0.953 | > 10.2 µM | 0.947 | > 10.2 µM | 0.964 | > 10.2 µM
PCI-4B (head and neck, adherent) | 0.066 | < 62.5 nM | 0.942 | > 10.2 µM | 0.984 | > 10.2 µM | 0.815 | 5.26 µM
PCI-6A (head and neck, adherent) | 0.211 | 144 nM | 0.934 | > 10.2 µM | 0.982 | > 10.2 µM | 0.598 | 1.18 µM
PCI-15A (head and neck, adherent) | 0.387 | 488 nM | 0.968 | > 10.2 µM | 0.987 | > 10.2 µM | 0.984 | > 10.2 µM
